The labels stand for the following.
B1: GPR68, Q15743 (parent)
chain: MGNITADNSSMSCTIDHTIHQTLAPVVYVTVLVVGFPANCLSLYFGYLQIKARNELGVYLCNLTVADLFYICSLPFWLQYVLQHDNWSHGDLSCQVCGILLYENIYISVGFLCCISVDRYLAVAHPFRFHQFRTLKAAVGVSVVIWAKELLTSIYFLMHEEVIEDENQHRVCFEHYPIQAWQRAINYYRFLVGFLFPICLLLASYQGILRAVRRSHGTQKSRKDQIQRLVLSTVVIFLACFLPYHVLLLVRSVWEASCDFAKGVFNAYHFSLLLTSFNCVADPVLYCFVSETTHRDLARLRGACLAFLTCSRTGRAREAYPLGAPEASGKSGAQGEEPELLTKLHPAFQTPNSPGSGGFPTGRLA

The least precise scores are not listed. Not listed are two conditions whose scores span a narrow range. Read del as a deletion of the residues named and ins as an insertion between two positions. For some assays here: The concentration of ogerin is not given here.

In data set [1] the parent is B1. The data set can be described thus: cAMP reporter score (Enrich2 score, wild type = 0); higher = more signal; HEK293T, FACS bins.
Variants of B1 are the subject of data set [2]. The data set can be described thus: surface expression score (Enrich2 score, wild type = 0); higher = more signal; HEK293T, FACS bins.

Consider I208L, for which the cAMP reporter score in data set [1] (pH 5.5) is -1.1; in data set [1] (pH 6) it was 0.083; in data set [1] (pH 6, modulator: ogerin) it was -0.859; in data set [1] (pH 6.5, modulator: ogerin), -0.592. Moreover, in data set [2], the surface expression score is -1.67.

With I208E, the cAMP reporter score in data set [1] (pH 5.5) was -1.39; in data set [1] (pH 6), -0.651.

As to I208M, the cAMP reporter score in data set [1] (pH 5.5) was 0.063; in data set [1] (pH 6) it was 0.262; in data set [1] (pH 6, modulator: ogerin), 0.191; in data set [1] (pH 6.5, modulator: ogerin), -0.555. The surface expression score in data set [2] was -0.838.

I208W: the cAMP reporter score in data set [1] (pH 5.5) was -1.66; in data set [1] (pH 6), -1.33; in data set [1] (pH 6, modulator: ogerin), -1.31; in data set [1] (pH 6.5, modulator: ogerin), -0.747. Also, the surface expression score in data set [2] is -2.29.

I208C: the cAMP reporter score is -1.02 in data set [1] (pH 5.5); -1.43 in data set [1] (pH 6); -1.1 in data set [1] (pH 6, modulator: ogerin); -1.44 in data set [1] (pH 6.5, modulator: ogerin). Besides, the surface expression score in data set [2] was -0.871.

Consider R222del, for which the cAMP reporter score is 1.03 in data set [1] (pH 5.5); -0.769 in data set [1] (pH 6); 0.822 in data set [1] (pH 6, modulator: ogerin); -0.531 in data set [1] (pH 6.5, modulator: ogerin). Besides, the surface expression score in data set [2] came to 0.984.

As to T218L, the cAMP reporter score in data set [1] (pH 5.5) is -0.286; in data set [1] (pH 6), 2.01; in data set [1] (pH 6, modulator: ogerin), 0.468; in data set [1] (pH 6.5, modulator: ogerin), 2.39.

Regarding T218A, the cAMP reporter score in data set [1] (pH 5.5) is 0.312; in data set [1] (pH 6), -0.325; in data set [1] (pH 6, modulator: ogerin), 0.372; in data set [1] (pH 6.5, modulator: ogerin), -0.479. In data set [2], the surface expression score worked out at 0.506.

With T218H, the cAMP reporter score is -0.309 in data set [1] (pH 5.5); -0.772 in data set [1] (pH 6); -1.43 in data set [1] (pH 6, modulator: ogerin). Also, the surface expression score in data set [2] was -0.643.

T218K: the cAMP reporter score was -1.34 in data set [1] (pH 5.5); -1.22 in data set [1] (pH 6); -2.06 in data set [1] (pH 6, modulator: ogerin); -1.01 in data set [1] (pH 6.5, modulator: ogerin). In addition, the surface expression score in data set [2] was -0.61.

T218F: the cAMP reporter score is 0.226 in data set [1] (pH 5.5); -0.565 in data set [1] (pH 6); 0.637 in data set [1] (pH 6, modulator: ogerin); -0.131 in data set [1] (pH 6.5, modulator: ogerin). For the same variant, the surface expression score in data set [2] stood at 0.043.

Consider T218P, for which the cAMP reporter score is -0.628 in data set [1] (pH 5.5); -1.15 in data set [1] (pH 6); 0.086 in data set [1] (pH 6, modulator: ogerin); -1.25 in data set [1] (pH 6.5, modulator: ogerin). Moreover, the surface expression score in data set [2] came to 0.322.

With T218Q, the cAMP reporter score in data set [1] (pH 5.5) is 0.107; in data set [1] (pH 6), -0.176; in data set [1] (pH 6, modulator: ogerin) it was 0.283; in data set [1] (pH 6.5, modulator: ogerin), -0.893. For the same variant, in data set [2], the surface expression score amounted to 1.14.

For T218G, the cAMP reporter score in data set [1] (pH 5.5) is -1.46; in data set [1] (pH 6) it was -1.41; in data set [1] (pH 6, modulator: ogerin), -1.49; in data set [1] (pH 6.5, modulator: ogerin) it was -1.91. For the same variant, in data set [2], the surface expression score came to 0.135.

Regarding T218E, the cAMP reporter score in data set [1] (pH 5.5) was 0.664; in data set [1] (pH 6), -0.769; in data set [1] (pH 6, modulator: ogerin) it was 0.686; in data set [1] (pH 6.5, modulator: ogerin) it was -0.266. In addition, the surface expression score in data set [2] is 0.954.

For the variant T218D, the cAMP reporter score in data set [1] (pH 5.5) is -0.337; in data set [1] (pH 6) it was -0.913; in data set [1] (pH 6, modulator: ogerin), -0.561; in data set [1] (pH 6.5, modulator: ogerin) it was -0.442. The surface expression score in data set [2] turned out to be 2.16.

Take T218V: the cAMP reporter score in data set [1] (pH 5.5) was -0.398.

For the variant T218S, the cAMP reporter score in data set [1] (pH 5.5) was -0.274; in data set [1] (pH 6), -1.08; in data set [1] (pH 6, modulator: ogerin) it was -0.641; in data set [1] (pH 6.5, modulator: ogerin) it was -1.08. Moreover, the surface expression score in data set [2] is -0.029.

Turning to T218C, the cAMP reporter score was 0.376 in data set [1] (pH 5.5); 1.36 in data set [1] (pH 6, modulator: ogerin); -0.316 in data set [1] (pH 6.5, modulator: ogerin).

Consider T218I, for which the cAMP reporter score in data set [1] (pH 5.5) is -0.207; in data set [1] (pH 6), 1.03; in data set [1] (pH 6, modulator: ogerin), -0.29; in data set [1] (pH 6.5, modulator: ogerin) it was 0.746. Also, the surface expression score in data set [2] was -0.066.

On to T218Y, for which the cAMP reporter score was -0.314 in data set [1] (pH 5.5); -0.996 in data set [1] (pH 6); -0.371 in data set [1] (pH 6, modulator: ogerin); -0.425 in data set [1] (pH 6.5, modulator: ogerin). Further, the surface expression score in data set [2] is -0.442.

Take T218W: the cAMP reporter score in data set [1] (pH 5.5) is -0.212; in data set [1] (pH 6), -0.933; in data set [1] (pH 6, modulator: ogerin) it was -0.839; in data set [1] (pH 6.5, modulator: ogerin) it was -1.33. The surface expression score in data set [2] came out at 0.436.

With T218N, the cAMP reporter score was -0.737 in data set [1] (pH 5.5); -0.971 in data set [1] (pH 6); -1.22 in data set [1] (pH 6.5, modulator: ogerin). For the same variant, the surface expression score in data set [2] turned out to be 0.993.

Regarding D224_Q225insGSG, the cAMP reporter score in data set [1] (pH 5.5) is -1.64; in data set [1] (pH 6), -1.21; in data set [1] (pH 6, modulator: ogerin) it was -1.21; in data set [1] (pH 6.5, modulator: ogerin), -1.5. Moreover, the surface expression score in data set [2] worked out at 0.296.

Consider S221_R222insGSG, for which the cAMP reporter score in data set [1] (pH 5.5) was -1.13; in data set [1] (pH 6), -1.19; in data set [1] (pH 6.5, modulator: ogerin) it was -1.52. In addition, the surface expression score in data set [2] was 0.218.

Turning to I198del, the cAMP reporter score was -1.72 in data set [1] (pH 5.5); -1.53 in data set [1] (pH 6); -0.909 in data set [1] (pH 6.5, modulator: ogerin). Also, the surface expression score in data set [2] was -2.25.

Regarding Q206_G207insGSG, the cAMP reporter score in data set [1] (pH 5.5) was -1.91; in data set [1] (pH 6) it was -1.54; in data set [1] (pH 6, modulator: ogerin), -2.16; in data set [1] (pH 6.5, modulator: ogerin), -0.947. In data set [2], the surface expression score is -2.28.

Regarding F196_P197insGS, the cAMP reporter score in data set [1] (pH 5.5) was -0.049; in data set [1] (pH 6), 1.33; in data set [1] (pH 6, modulator: ogerin) it was -0.759; in data set [1] (pH 6.5, modulator: ogerin), 0.57. Also, the surface expression score in data set [2] is -2.56.

As to I198_C199insG, the cAMP reporter score in data set [1] (pH 5.5) was -1.41; in data set [1] (pH 6), -1.08; in data set [1] (pH 6, modulator: ogerin), -1.38; in data set [1] (pH 6.5, modulator: ogerin) it was -1.03. Further, the surface expression score in data set [2] was -1.97.

Take F194del: the cAMP reporter score was -1.46 in data set [1] (pH 5.5); 1.09 in data set [1] (pH 6); -0.627 in data set [1] (pH 6, modulator: ogerin); -0.564 in data set [1] (pH 6.5, modulator: ogerin).

L195del: the cAMP reporter score in data set [1] (pH 5.5) was -1.4; in data set [1] (pH 6), -1.04; in data set [1] (pH 6, modulator: ogerin) it was -1.49; in data set [1] (pH 6.5, modulator: ogerin), -0.473.

As to L201_A203del, the cAMP reporter score in data set [1] (pH 5.5) was -0.539; in data set [1] (pH 6), -0.993; in data set [1] (pH 6, modulator: ogerin) it was -2.55; in data set [1] (pH 6.5, modulator: ogerin) it was -0.748. The surface expression score in data set [2] was -2.93.

As for L202_A203insG, the cAMP reporter score in data set [1] (pH 5.5) is -0.605; in data set [1] (pH 6), -1.01; in data set [1] (pH 6, modulator: ogerin), -1.98; in data set [1] (pH 6.5, modulator: ogerin) it was -0.876. The surface expression score in data set [2] is -4.22.
